In all, about 33,000 sequences were measured (“E-score (-0.5 to 0.5)”: median about -0.021, highest 2% from about 0.32 on). This is one part of the list.
These sequences were tested against T1, Zap1 (UniProt P47043) (assay: PBM E-score (8-mer binding enrichment) (E-score (-0.5 to 0.5)); higher = stronger / more preferred TF binding; most listed sequences are background and not binding sites). Details: protein concentration: 200 nM; construct: GST-full length.
T1 sequence: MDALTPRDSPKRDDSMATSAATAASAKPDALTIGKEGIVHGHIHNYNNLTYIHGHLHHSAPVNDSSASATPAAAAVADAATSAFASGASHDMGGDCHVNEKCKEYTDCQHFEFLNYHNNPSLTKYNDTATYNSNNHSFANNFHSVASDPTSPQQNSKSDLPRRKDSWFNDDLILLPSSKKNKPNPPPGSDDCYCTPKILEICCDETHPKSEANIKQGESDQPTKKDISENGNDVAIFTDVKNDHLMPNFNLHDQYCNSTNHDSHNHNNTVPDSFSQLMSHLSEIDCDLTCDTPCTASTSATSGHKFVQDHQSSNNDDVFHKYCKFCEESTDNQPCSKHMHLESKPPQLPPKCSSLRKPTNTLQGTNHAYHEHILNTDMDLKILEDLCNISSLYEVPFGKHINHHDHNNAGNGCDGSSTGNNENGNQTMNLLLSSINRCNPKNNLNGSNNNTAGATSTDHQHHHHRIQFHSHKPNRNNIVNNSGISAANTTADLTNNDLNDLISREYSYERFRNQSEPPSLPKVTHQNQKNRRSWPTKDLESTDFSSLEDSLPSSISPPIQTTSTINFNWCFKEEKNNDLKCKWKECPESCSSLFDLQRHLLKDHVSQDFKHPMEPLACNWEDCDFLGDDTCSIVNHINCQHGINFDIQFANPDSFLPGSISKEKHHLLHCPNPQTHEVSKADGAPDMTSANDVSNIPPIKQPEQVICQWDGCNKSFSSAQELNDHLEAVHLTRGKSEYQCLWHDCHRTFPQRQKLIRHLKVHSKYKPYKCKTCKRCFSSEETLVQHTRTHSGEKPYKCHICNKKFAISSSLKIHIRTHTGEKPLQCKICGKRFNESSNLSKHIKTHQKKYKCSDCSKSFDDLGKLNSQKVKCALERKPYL
Method in brief: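 Universal all-10-mer Agilent arrays, fresh or stripped once, were converted to double-stranded form by primer extension. GST-tagged yeast transcription factors from PURExpress in vitro transcription/translation, full-length or DNA-binding domain only, were applied at about 100-200 nM and detected with fluorescent anti-GST. After masliner normalisation, the Universal PBM Analysis Suite scored each ungapped eight-base word together with its reverse complement by E-score.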
For ATCGAAAT, the “PBM E-score” value was 0.0187. AGAGATCA was tested, and the “PBM E-score” value was -0.0378. CTGTAATC was tested, and the “PBM E-score” value was -0.0263. For CAAGTTCG, the “PBM E-score” value was -0.0204. ATCGACTA was tested, and the “PBM E-score” value was -0.0328. With TATCAGCA the “PBM E-score” value was 0.124. For TAACGGGA, the “PBM E-score” value was -0.206. For ACCCAAGG, the “PBM E-score” value was 0.3. For CAAGATGA, the “PBM E-score” value was -0.178. With GCTCCGAC the “PBM E-score” value was -0.208. With ATTCTGCA the “PBM E-score” value was -0.0113. ATCTGGGC was tested, and the “PBM E-score” value was -0.142. For AGACGTTC, the “PBM E-score” value was -0.189. In the case of ATGCGCCA, the “PBM E-score” value is reported as -0.0984. CCAAACCG was tested, and the “PBM E-score” value was 0.122. In the case of GTCAAGAC, the “PBM E-score” value is reported as -0.0329. In the case of ACCTAAAG, the “PBM E-score” value is reported as 0.219. For TGGCACCA, the “PBM E-score” value was -0.0571. With CTTATCGC the “PBM E-score” value was -0.0616. For GACCGCAC, the “PBM E-score” value was -0.0831. ACGGTTCC was tested, and the “PBM E-score” value was -0.0086. In the case of GCAGTCCA, the “PBM E-score” value is reported as -0.126. With ATTGTGGG the “PBM E-score” value was 0.053. In the case of AGCGCGAT, the “PBM E-score” value is reported as 0.00939. In the case of ATCGTCAG, the “PBM E-score” value is reported as -0.145. For CTACTGCA, the “PBM E-score” value was -0.158. In the case of ATCACTGA, the “PBM E-score” value is reported as -0.0167. For GAAATATA, the “PBM E-score” value was 0.139. In the case of CAAGAGAG, the “PBM E-score” value is reported as -0.0256. CAGTCAGG was tested, and the “PBM E-score” value was -0.206. CGCCTGTC was tested, and the “PBM E-score” value was -0.337. AAGGCGTC was tested, and the “PBM E-score” value was -0.188. In the case of TAGATACA, the “PBM E-score” value is reported as -0.00833. With AACCACAG the “PBM E-score” value was 0.233. With ACCATGCC the “PBM E-score” value was 0.0392. For GTCGAGGA, the “PBM E-score” value was -0.172. In the case of CAGGCCGG, the “PBM E-score” value is reported as -0.259. In the case of ACGAAATA, the “PBM E-score” value is reported as -0.0355. In the case of GCCGTACC, the “PBM E-score” value is reported as 0.0363. For CAGTCCGA, the “PBM E-score” value was -0.0499. With CCGTGGAG the “PBM E-score” value was -0.0519. With CCTGCCCA the “PBM E-score” value was -0.184. In the case of CCCTCATC, the “PBM E-score” value is reported as -0.191. For CATGCGAA, the “PBM E-score” value was -0.0569. With CTGTAAAG the “PBM E-score” value was -0.0122. In the case of CCTCGCAG, the “PBM E-score” value is reported as -0.0888. For ACGCCAAT, the “PBM E-score” value was 0.127. With ATTGTGAG the “PBM E-score” value was 0.0852. For AATAGACG, the “PBM E-score” value was -0.163. With AGCGCATA the “PBM E-score” value was -0.0298. With AACTGCCA the “PBM E-score” value was -0.0896. In the case of CCTTCGGA, the “PBM E-score” value is reported as 0.0786. In the case of CGCTCAGA, the “PBM E-score” value is reported as 0.146. With AGCATACG the “PBM E-score” value was -0.191. For ATCCCACG, the “PBM E-score” value was -0.171. For CTTAGGTC, the “PBM E-score” value was 0.178. In the case of CCTATAGC, the “PBM E-score” value is reported as -0.0148. For ACGTCATA, the “PBM E-score” value was -0.0571. For GCCAGATA, the “PBM E-score” value was -0.0632. With CTAATATC the “PBM E-score” value was 0.176. In the case of ACCATCAA, the “PBM E-score” value is reported as 0.111. In the case of CCGTCAGC, the “PBM E-score” value is reported as -0.241. With CTCACTAA the “PBM E-score” value was -0.0158. CGACTTTC was tested, and the “PBM E-score” value was -0.0833. For GCACAGTA, the “PBM E-score” value was 0.046. With CATGGGAC the “PBM E-score” value was 0.0674. GCAGGGCC was tested, and the “PBM E-score” value was -0.152. With AACGGTCA the “PBM E-score” value was 0.324. AGTCCTTG was tested, and the “PBM E-score” value was -0.0318. For GGACGGAC, the “PBM E-score” value was -0.141. GATGGCAA was tested, and the “PBM E-score” value was -0.0776. With TAAAGCTA the “PBM E-score” value was -0.124. With AGTGCCCA the “PBM E-score” value was -0.135. In the case of CGCCGCTA, the “PBM E-score” value is reported as 0.0114. With CCGAGACG the “PBM E-score” value was -0.304. With CGCAAGAA the “PBM E-score” value was 0.216. With AACTGCCG the “PBM E-score” value was -0.0311. In the case of ATCGTATC, the “PBM E-score” value is reported as -0.0177. For GCAAGAAA, the “PBM E-score” value was 0.0794. In the case of AATACCGG, the “PBM E-score” value is reported as 0.101. With TTAATCAA the “PBM E-score” value was 0.217. GTACTATA was tested, and the “PBM E-score” value was 0.209. With CCGAGACC the “PBM E-score” value was 0.197. In the case of CAGGAAAC, the “PBM E-score” value is reported as 0.0766. In the case of AACTTACG, the “PBM E-score” value is reported as -0.112. For CATCACCC, the “PBM E-score” value was 0.314. For ACAGCGCT, the “PBM E-score” value was -0.123. In the case of GGAGCAAC, the “PBM E-score” value is reported as -0.0826. For AAGTTGAC, the “PBM E-score” value was -0.00029. CAAAAGCA was tested, and the “PBM E-score” value was -0.027. With AGCGAAGC the “PBM E-score” value was -0.144. With GTGAAAAC the “PBM E-score” value was 0.137. With GAACCGAA the “PBM E-score” value was 0.0212. GGGAAACC was tested, and the “PBM E-score” value was 0.324. AAATCCGG was tested, and the “PBM E-score” value was -0.0744. AGGTAAAT was tested, and the “PBM E-score” value was 0.171. CGGGGCTC was tested, and the “PBM E-score” value was -0.238. GGTGATAA was tested, and the “PBM E-score” value was 0.183. With ACCAACCT the “PBM E-score” value was 0.126. CTAAACAA was tested, and the “PBM E-score” value was 0.00266. In the case of ATCCCCCG, the “PBM E-score” value is reported as -0.219. For CGTTAATC, the “PBM E-score” value was 0.0807. In the case of CGAGGGGA, the “PBM E-score” value is reported as -0.107. GCTATTAC was tested, and the “PBM E-score” value was 0.0241. With GGGAATAC the “PBM E-score” value was -0.129. For GGATGCCA, the “PBM E-score” value was -0.224. In the case of GGTCAGTA, the “PBM E-score” value is reported as 0.148. TAGCACTA was tested, and the “PBM E-score” value was -0.0804. In the case of ACAGTCTA, the “PBM E-score” value is reported as -0.0889.
